# PubChem BioAssay AID1030 (National Center for Advancing Translational Sciences (NCATS), 2008)
# About 16,000 (7.3%) of roughly 220,000 compounds were called active. This list was built around the results that the source calls inconclusive (neither active nor inactive); the mix of calls is not that of the screen. The call rests on the fitted dose curve; in most records, active means well fitted inhibition curve with a large enough effect (not every such curve was filed as active); inconclusive means small, poorly fitted or top-dose-only effect, or another doubt; inactive means no such curve, though single readings can be large or run the other way. Potencies of inconclusive entries are left out as doubtful fits.
# Molecular target: Aldehyde dehydrogenase 1A1 (Homo sapiens) (UniProt P00352)
# Chain of UniProt P00352 (P00352 whole entry, looked up): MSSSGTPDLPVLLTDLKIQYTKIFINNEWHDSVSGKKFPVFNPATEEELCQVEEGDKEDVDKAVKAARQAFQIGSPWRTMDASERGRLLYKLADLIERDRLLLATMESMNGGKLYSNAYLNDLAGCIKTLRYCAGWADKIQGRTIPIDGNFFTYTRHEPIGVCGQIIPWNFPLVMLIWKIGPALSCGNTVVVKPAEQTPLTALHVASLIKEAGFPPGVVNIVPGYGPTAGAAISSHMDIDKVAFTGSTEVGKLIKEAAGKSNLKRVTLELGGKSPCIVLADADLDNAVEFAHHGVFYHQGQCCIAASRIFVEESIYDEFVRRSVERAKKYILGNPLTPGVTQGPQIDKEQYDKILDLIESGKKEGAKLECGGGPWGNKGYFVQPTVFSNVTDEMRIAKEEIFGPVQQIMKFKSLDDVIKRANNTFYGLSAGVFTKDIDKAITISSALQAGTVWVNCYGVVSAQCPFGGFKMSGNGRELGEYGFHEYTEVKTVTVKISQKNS
# Assay: qHTS Assay for Inhibitors of Aldehyde Dehydrogenase 1 (ALDH1A1)
# Conditions: Purified ALDH1A1, NADH fluorescence, propionaldehyde substrate; series mostly up to 75.3 µM
# Potency means the concentration at half of the fitted maximal effect; tags describe the fitted curve by direction and shape.
row,SMILES,Potency
1,CC(=O)Nc1ccc(C2=NN(C)C(=NCc3ccccc3)SC2)cc1,active: 2.82 µM
2,O=C(Nc1sc2c(c1C(=O)NC1CC1)CCCCCC2)c1ccco1,"inconclusive [inhibitor, partial curve]"
3,O=C(O)CCNc1cc2ccccc2cc1C(=O)O,"inconclusive [inhibitor, partial curve]"
4,CNc1ccccc1C(=O)OCC(=O)c1ccc(F)cc1,"inconclusive [inhibitor, single point]"
5,CC(=O)Nc1ccc(N/C=C/C(=O)C(C)(C)C)cc1,active: 22.4 µM
6,Cc1cc(C(=O)OCC(=O)c2ccc(Br)s2)no1,"inconclusive [inhibitor, partial curve, poor fit]"
7,[O-]/C(=C(\C(=S)Nc1ccc(SC(F)F)cc1)[n+]1cccc(CO)c1)c1ccc(Cl)s1,"inconclusive [inhibitor, single point]"
8,CCCCN1C(=O)/C(=C/C=C2\N(C)c3ccccc3C2(C)C)SC1=S,"inconclusive [inhibitor, single point]"
9,COc1ccc(CCN2C(=O)CC(Nc3ccc(N4CCOCC4)cc3)C2=O)cc1OC (stereo not given),"inconclusive [inhibitor, single point]"
10,O=c1c2ccccc2c(/C=N/c2n[nH]c(CCCO)n2)c(O)n1-c1ccccc1Cl,"inconclusive [inhibitor, full curve]"
11,COc1ccccc1NS(=O)(=O)c1cc(NC(=O)Nc2ccccc2)ccc1N1CCCCC1,active: 17.8 µM
12,CCn1ccnc1CN(C)Cc1cn(-c2cc(C)ccc2C)nc1-c1ccccc1,active: 28.2 µM
13,O=C(COc1ccccc1)NNC(=S)NC(=O)c1ccc(Cl)cc1Cl,active: 7.94 µM
14,CCN1CCc2nc(SCC(=O)Nc3ccc(OC)cc3)c(C#N)cc2C1,"inconclusive [inhibitor, partial curve]"
15,O=[N+]([O-])c1ccc(C2=NN(CCO)C(=Nc3ccc(OC(F)(F)F)cc3)SC2)cc1,"inconclusive [inhibitor, single point]"
16,Cc1cc(C)c(-c2csc(NC(=O)C3=NN(c4ccccc4)C(=O)CC3)n2)c(C)c1,"inconclusive [inhibitor, single point]"
17,CC(C(=O)N1CCCCC1)N(C)CC(=O)Nc1ccc(Cl)cc1 (stereo not given),"inconclusive [inhibitor, single point]"
18,Cc1ccc(S(=O)(=O)N2CCC(=O)N(CCOCc3cccc(C)c3)CC2)cc1,inactive
19,CC(=O)Nc1ccc(S(=O)(=O)NCc2ccc3c(c2)cc(C)n3C)cc1,"inconclusive [inhibitor, single point]"
20,Cc1cccc(N(Cc2cc3ccccc3[nH]c2=O)C(=O)c2ccco2)c1C,active: 12.6 µM
21,Cc1occc1-c1nnc(SCC(=O)c2ccc(Cl)cc2)n1C,"inconclusive [inhibitor, single point]"
22,COc1ncc2nc(-c3cn(C)c4ccccc34)c(=O)n(C[C@H]3CCCO3)c2n1,"inconclusive [inhibitor, single point]"
23,CCN(CC)S(=O)(=O)c1ccc(OC(C)C)c(N)c1,inactive
24,CC(=O)c1cccc(NC(=S)NC(=O)c2ccccc2C)c1,"inconclusive [inhibitor, full curve]"
25,Cc1ccc(-c2nc(CS(=O)CC(=O)NCc3ccccn3)c(C)o2)cc1 (stereo not given),"inconclusive [inhibitor, single point]"

row,SMILES,Potency
1,Cc1ccc(S(=O)(=O)N(C)c2ccc3sc(C)nc3c2)cc1,"inconclusive [inhibitor, single point]"
2,COCCNc1nnc(SCC(=O)c2ccc3c(c2)OCO3)s1,"inconclusive [inhibitor, single point]"
3,COCC(=O)Nc1nc2n(n1)C(c1ccccc1Cl)CC(c1ccc(OC)cc1)N2 (stereo not given),"inconclusive [inhibitor, single point]"
4,C=C(C)COc1ccc(-c2n[nH]c(C)c2-c2ccc(OC)cc2)c(O)c1,"inconclusive [inhibitor, single point]"
5,COc1ccc(C(=O)N2CC(=O)Nc3ccccc32)cc1S(=O)(=O)N1CCCC1,"inconclusive [inhibitor, single point]"
6,Cc1c(C(=O)NC(C)CCc2ccccc2)cccc1[N+](=O)[O-] (stereo not given),"inconclusive [inhibitor, full curve]"
7,COc1ccc(CNC(=O)COC(=O)/C=C/c2ccc(S(=O)(=O)N3CCOCC3)cc2)cc1,"inconclusive [inhibitor, single point]"
8,O=C(NCCN1CCc2ccccc2C1)C1CCN(S(=O)(=O)N2CCCCC2)CC1,active: 17.8 µM
9,CCc1ccc(C2=NNC(=Nc3c(C)n(C)n(-c4ccccc4)c3=O)SC2)cc1,"inconclusive [inhibitor, single point]"
10,C/C(=N/NC(=O)c1ccc2c(c1)OCO2)c1ccc(Br)s1,inactive
11,C(=C\c1nc(-c2ccccc2)oc1Nc1ccc2ccccc2c1)/c1ccccc1,inactive
12,COc1cc(OC)c(N(C)S(=O)(=O)c2cccc(C(=O)OCC(=O)NCc3ccco3)c2)cc1Cl,inactive
13,CCc1nc2oc3cc(OC)ccc3c(=O)c2c(=O)n1-c1ccccc1,inactive
14,NC(=O)c1sc2cc(C(F)(F)F)cnc2c1-c1cccs1,inactive
15,CC(C)(C)NC(=O)Cn1c(SCC(=O)N2CCCCCC2)nc2ccccc21,"inconclusive [inhibitor, single point]"
16,CCc1ccccc1N1CC23C=CC(O2)C(C(=O)OCC(C)C)C3C1=O (stereo not given),inactive
17,CC1CCCN(C(=O)C(Cc2ccccc2)n2cccc2)C1 (stereo not given),inactive
18,O=C(CSc1cccc[n+]1[O-])c1ccc(Cl)s1,inactive
19,Cc1noc(C)c1C(=O)N1CCC2(CCN(C(=O)Nc3ccccc3)CC2)CC1,"inconclusive [inhibitor, single point]"
20,Cc1cc2c(cc1C)CSC(c1ccc(O)cc1)SC2,"inconclusive [inhibitor, partial curve]"
21,CCOc1ccccc1NS(=O)(=O)c1cn(C)nc1C,inactive
22,CN1CCc2nc(NC(=O)c3cccc(S(=O)(=O)N4CCc5ccccc54)c3)sc2C1,active: 12.6 µM
23,S=C(Nc1ccc(Cl)cc1)N1CCCC1,inactive
24,CCn1c(SCC(=O)N/N=C(\C)c2ccncc2)nnc1-c1ccc(C)cc1,active: 20 µM
25,Cc1ccc(NC(=O)COc2ccccc2C(=O)Nc2ccccc2)cc1Cl,"inconclusive [inhibitor, partial curve]"

row,SMILES,Potency
1,Cc1ccc(NS(=O)(=O)c2cccc(C(=O)O)c2)cc1S(=O)(=O)N1CCCCC1,"inconclusive [inhibitor, single point]"
2,CCCCCC(=O)Cc1cc(O)cc(O)c1C(=O)Oc1cc(CC(=O)CCCCC)c(C(=O)O)c(OC)c1,inactive
3,Cc1cc(=O)n2c3ccccc3n(CC(O)CN3CCC(C)CC3)c2c1C#N (stereo not given),"inconclusive [inhibitor, single point]"
4,Cc1oc(C(=O)Nc2ccc(C(=O)O)cc2)cc1COc1ccccc1,inactive
5,CCC(C)N(CC(=O)Nc1cccc(C)c1C)C(=O)CCl (stereo not given),inactive
6,COc1ccc(-c2coc3cc(O)ccc3c2=O)c(O)c1O,active: 8.91 µM
7,COCCCNC(=O)C1CC(=O)N(CCc2ccc(OC)c(OC)c2)C1 (stereo not given),inactive
8,O=C(Nn1cnc2ccccc2c1=O)c1ccccc1,inactive
9,CCn1c2ccccc2c2nc3cc(S(=O)(=O)N4CCOCC4)ccc3nc21,active: 1 µM
10,CCN(CC)CCNC(=O)CCCCn1c(=S)[nH]c2c([nH]c3ccc(OC)cc32)c1=O,"inconclusive [inhibitor, single point]"
11,Nc1nnc(-c2ccc(Cl)c([N+](=O)[O-])c2)s1,active: 28.2 µM
12,COc1ccc(C2NCCc3sccc32)cc1 (stereo not given),inactive
13,Cn1c(=O)c(-c2cccs2)nc2cncnc21,"inconclusive [inhibitor, partial curve]"
14,Cc1ccc(C2=CSC3=NNC4(CCCCC4)NN23)cc1,"inconclusive [inhibitor, single point]"
15,C=CCn1c(C)c(C(C)=O)cc(NC(=O)c2ccccc2)c1=O,"inconclusive [inhibitor, partial curve]"
16,COc1ccc(Cc2nnc(NC(=O)CSc3ccccc3)s2)cc1,inactive
17,COCCn1c(SCC(=O)c2ccccc2)nc2c(c1=O)SC(C)C2 (stereo not given),"inconclusive [inhibitor, partial curve]"
18,S=c1[nH]nc(-c2cccs2)n1/N=C/c1cccs1,"inconclusive [inhibitor, partial curve]"
19,Cc1cc(C)c2[nH]c(=O)c(CN(Cc3ccco3)C(=O)c3cccs3)cc2c1,active: 17.8 µM
20,O=C(N/N=C/c1cccs1)c1cc(C2CC2)nc2ccccc12,inactive
21,O=C(N/N=C/c1cccs1)c1cncc(Br)c1,inactive
22,COCCn1c(N)c(C(=O)Nc2sc3c(c2C(=O)OC)CCCC3)c2nc3ccccc3nc21,"inconclusive [inhibitor, single point]"
23,O=C(COc1ccc(Cl)cc1)N/N=C/CCc1ccccc1,"inconclusive [inhibitor, partial curve]"
24,O=c1c2ccccc2ncn1Cc1ccc(Cl)cc1,inactive
25,C=CCn1c(COc2cccc(C)c2)nnc1SCn1nnc2ccccc2c1=O,"inconclusive [inhibitor, single point]"
